Measurements: the RNAGym collection of RNA variant scans (doi:10.7554/elife.90254)
Read counts are not given, so values of variants with three or more changes are uncertain.

B1: LINE1-full (parent)
chain: UACGUAGGUGGUUUUCCCCUGAUAGUGCUAAGGGGGCCUGGAAGUUUGGACUGGGCAGAGCUCAACACAGCGUGGCAAAGUGGCUGUGGCUAGACUGCCUCUCUGGAUUCCUCGUCACUCAGCAGGGCAUCUCUGAGAGAAAUGCC

Variants of: B1
Assay: self-cleavage, relative activity (ratio to wild type); higher = more cleavage; in vitro, sequencing; the parent is a self-cleaving ribozyme

Row | Variant | self-cleavage
1 | U47C U115C C128U | 1.84
2 | U46A U62C A121G A140G | 0
3 | U47C A78G U102A U112A U143C | 2.04
4 | U45C G55A A142G | 0.2
5 | U46C A65G A121G | 0
6 | U46G A50G A77G A140G G144A | 1.84
7 | U47C A77U U115A U132C | 2.07
8 | U47C A57G U85G | 0
9 | U46C C98U G106A A138U | 0.35
10 | U47C U102C A141G | 1.97
11 | U46C G139U A141C | 0.85
12 | U46A G60A U100C | 0.03
13 | U47C A79G G127A | 1.16
14 | U45C G49U A138G A142G | 0.94
15 | U46C U52C U73A U102C | 1.39
16 | U47A U87C G89A | 0.01
17 | U47C U85C C118U | 0.21
18 | U47A A65U U143C | 0
19 | U47G A59G G74A A140U | 0.06
20 | U46A A94G A124G | 0.34
21 | U46C C113A A136U G144A | 1.51
22 | U47C U96G A124G | 0
23 | G48A U96C A117U | 0.06
24 | U46C U52A U109C A121U A129C | 2.07

Row | Variant | self-cleavage
25 | U45C U100A C111U U132A | 0.77
26 | U45C U52A G114A | 1.15
27 | U47C A59G U100C | 0.1
28 | U45C U87C A94U U112C | 0.13
29 | U45C U46C U143C | 0.88
30 | G48A U104C U108C | 1.28
31 | U46A G75A U104C | 0.89
32 | U46C U62C U85C A121U | 0.33
33 | U45G A94G C131U A140U | 0
34 | U47A U52A U100A U112C A140G U143C | 1.91
35 | G48A A79G U112A U143C | 1.29
36 | U46C U47C A121U U130C | 0.51
37 | U47A U81A A121G U143A | 1.9
38 | U46C A57G G80U | 1.25
39 | U47C A64G U73A A121U A124G | 0.36
40 | U46C A64U C71U A129U | 0.28
41 | U46C A50G A57G U81A | 0.22
42 | U47C U52A U62C C63U | 0.05
43 | U46C A69U A107G A121G U132A | 0
44 | U46C A57U A59G A77G | 0
45 | U47A A57G G89C | 0.06
46 | U47C A117U C145A | 1.65
47 | U46C A65G U104C C123U A142G | 0.15
48 | U45C C63U G114A | 0.25

Row | Variant | self-cleavage
49 | U47C U96A U108A A129G | 0.15
50 | U46C A59G A136G | 0
51 | U46C G70U U96A U108C G114A | 0.01
52 | U47C U112C A138G | 2.8
53 | U47G A50G U73A | 1.23
54 | U47C U62C A92G | 0
55 | U46C A64G U73A C145U | 0.46
56 | U46G A67G A78G A140G | 0.71
57 | U46C A107U A121G | 2.69
58 | U47C C99U U132C U143C | 1.34
59 | U46C A64G A121G U134C | 0.43
60 | U47A U62C A64U U100C | 0.04
61 | U46C A67U U115C A121G | 0.55
62 | U46C G53A A57G U143C | 1.57
63 | U46C A117U A138G | 1.76
64 | U45G G74A C84G U100C | 0.07
65 | G48A G80A A141G | 2.42
66 | U47C A94G A117C G126A U143G | 0.18
67 | U47G U115C A129G | 0.77
68 | U47C U85A U87C U102A | 0.36
69 | U46C U52A U62C | 0.15
70 | U47A A64G U119G | 0.25
71 | U46G U100C A129G A142G | 1.97
72 | U47A A79C U87C A129G A141G | 0

Row | Variant | self-cleavage
73 | U45C G48A U112A U132C U143C | 1.53
74 | U47A A140G A141U | 0.77
75 | U46A A136G A141G U143C | 1.94
76 | U46A U81A U108C | 2.37
77 | U46A A77G A94G G114A | 0.32
78 | U46C A129U A138G A142G | 1.92
79 | U47A U52A A140G | 0.93
80 | U46A A64G A138G | 0.41
81 | U45G U62C G125A U132C | 0.05
82 | U46C A59G G126U | 0.09
83 | U46C A117G A140G | 1.84
84 | U46C U100C A117U | 1.66
85 | U46C A57G A69G U87A C110U A142U | 0
86 | U46A U62C C95U C111A | 0.02
87 | U45G A124U A140G | 1.03
88 | U45C G106A C118U | 0
89 | U47C A57G U104A | 1
90 | G48A U109C A140G | 0.33
91 | U45G U87A A124C | 0.08
92 | U47C A67G U96A A141G | 0.19
93 | U47C G122C G144A | 1.53
94 | U46A A50U U104C A141G | 0.65
95 | U47A U100A A121G | 0.57
96 | U45C U52C A77U | 1.57

Row | Variant | self-cleavage
97 | U47C A50U A129G | 1.53
98 | U45G G55C U102C | 0
99 | U45C U52C G89A C133U | 0
100 | U47G A59G G75A A129U | 0.12
101 | U47A U62C U132C | 0.03
102 | U46C G48U U96C U132C | 0.23
103 | U46C G60A A64G | 0.55
104 | U46C U52A A94U | 0.47
105 | U47C U87A U104A | 0.03
106 | U47C A78G U100A | 0.22
107 | U47C G125A U130C | 1.74
108 | U46A A64G G125A | 0.1
109 | U47A A59G U119C | 0.13
110 | U46C A65G A77G | 0.09
111 | U47A U52C A78U U104C C113U | 1.47
112 | U47C U96A U119C | 0.13
113 | U46A A57U A78U U115A A142G | 0.15
114 | U47A U130C C145U | 2.16
115 | U46C G70A U102C | 0.43
116 | U47C A65U A129U U132C A138G | 0.26
117 | U46C U130C A141G | 2.3
118 | U47A G75C G114A | 0.35
119 | U45C G125U A142G | 2.03
120 | U47G A92G U134A | 0.1

Row | Variant | self-cleavage
121 | U46C U100A A140U | 1.61
122 | U46C A65G A142G | 0.05
123 | U47A U96C U134C U143A | 0.19
124 | U47C A78G U132A | 1.72
125 | U45C G74A A124C | 1.43
126 | U47A A94G U104C | 0.08
127 | U46C U52A A69U G139U | 0.04
128 | U47A U73C A124U | 1.2
129 | U46C U47C A77G | 2.96
130 | U47A G58U A69U U130C | 0.03
131 | U46C A79G C103A | 1.53
132 | U47C G60U G105A A138G | 0.01
133 | G48A A65G A117G A141G | 0
134 | U46C G53A U62A G70C | 0.03
135 | U45C C66U U143C | 0.08
136 | U46A G60A U112A | 0.03
137 | U47A U62C C95U U112C A121U G126A A138G | 0.01
138 | U45G G114U A142G | 0.84
139 | U45G A67U U112A A124G | 0
140 | U45G A79G U112C | 1.41
141 | U45C C84A U143C | 0.18
142 | U46A U108C A141G | 1.54
143 | G48A A64G A67G U112C | 0.28
144 | U47G A69G U73A A107G A117U G125U | 0

Row | Variant | self-cleavage
145 | U46A U52C U87A U109A | 0.04
146 | U47A G122U C128U A138G | 1.1
147 | U47C A79G A124U | 0.63
148 | U46C U52A C120U | 1.88
149 | U46A A64U U112C | 0.25
150 | U47C A50G C128U A141G | 1.29
151 | U46C U73A G105U | 0.49
152 | U46A A64U A141G A142G | 0.28
153 | U46C U85A U130C A136G A142G | 0.37
154 | U45C G58A U112C | 0.03
155 | U45C U100C A129G | 0.51
156 | U46A U47C A59G | 0.16
157 | U47A A64G G88A | 0.05
158 | U47C A79C A117C | 2
159 | U45C U52G U132A | 1.49
160 | U45C U52G U132C | 2.01
161 | U45C U102A A124U | 0.91
162 | U47A U134C G144A | 0.71
163 | U46A U47G C128U | 1.12
164 | U47A U62C A92G A121U | 0.02
165 | U46A A59G U96A | 0.05
166 | U45C U108C U143A | 2.11
167 | U46A U109C U112A | 1.24
